In patent publication US11306124B2, “Agonist agents of CD47 inducing programmed cell death and their use in the treatments of diseases associated with defects in programmed cell death” (SORBONNE UNIVERSITE, priority 2016, dated 2022):
“Also recorded” adds a separate entry of the source. Part of at least one peptide drawing is inferred or uncertain, most often the ends. Residues, ends and D or L forms follow the SMILES beside them.

Tests used:
[1] = tested on: MCF-7, HCT-116, BxPC3 and A549 cancer cells; assay: Cell viability and proliferation of tumor cells (cytotoxic assay and direct cell counting); format: cell-based, human
Procedure: The effects of several cyclic peptides of the invention on the proliferation of tumor cells were evaluated on 5 cell lines (MCF-7, human breast cancer cells; HCT-116, human colon cancer cells; BxPC3, human pancreas cancer cells and A549, human lung cancer cells) by cytotoxic assay and by counting directly the number of cells.
Those cyclic peptides were dissolved in DMSO at the following concentrations: 0, 5, 10, 25, 50 and 100 μM.
Culture media used for these assays are: EMEM=10% SVF for MCF-7 and Wi38; RPMI […] SVF for HCT-116 and BxPC3 and F-12K=10% SVF for A549.
500 cells were seeded in 96-well plates, incubated at 37° C. for 24 hours, and treated by the cyclic peptides at the different concentrations and controls for 2 h.

CD47 = target: T1, CD47 (Homo sapiens, UniProt Q08722); assay: Binding affinity by Microscale Thermophoresis on labeled Jurkat and/or MEC-1 cell membrane preparation; settings: MST, Jurkat or MEC-1 membrane preparation
T1 construct: MEC-1 or Jurkat membrane preparation is labeled using the Nanotemper NT-647 labeling kit; endogenous in cells; host or cells: Jurkat and/or MEC-1 cell membrane preparation
T1 sequence (Q08722 19-323): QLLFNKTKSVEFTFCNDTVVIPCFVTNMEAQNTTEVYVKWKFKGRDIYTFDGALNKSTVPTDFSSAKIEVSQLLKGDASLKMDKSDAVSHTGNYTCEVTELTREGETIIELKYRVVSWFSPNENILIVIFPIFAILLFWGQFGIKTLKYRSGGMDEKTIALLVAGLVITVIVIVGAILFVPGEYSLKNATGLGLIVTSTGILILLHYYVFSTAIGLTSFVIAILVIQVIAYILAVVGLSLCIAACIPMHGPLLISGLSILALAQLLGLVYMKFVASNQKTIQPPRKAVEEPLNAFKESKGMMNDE
Text: FIG. 5 and FIG. 6. Binding curve measured by MST. The measurement method is based on the directed movement of molecules along a temperature gradient, an effect termed “thermophoresis”. A local temperature difference ΔT leads to a local change in molecule concentration (depletion or enrichment), quantified by the Soret coefficient ST: chot/ccold=exp(−STΔT). Jurkat or Mec-1 cell membrane preparations are labeled using the Nanotemper NT-647 labeling kit as described elsewhere.xliv The labeled preparation is eluted with PBS and stored at 4° C. A stock solution of each peptide is prepared in DMSO (5 mM) and then diluted with PBS. For the peptides evaluated by MST, we have kept the concentration of the NT.115-labeled membrane constant, while the concentration of the ligand (peptide) was varied. […]
Binding affinity measurements. The binding affinities of peptides, here PKT16, PKTD1, PKTD10, PKTD10-1, PKTD10-3, PKTD10-5, PKDT10-7 and PKTD10-8 for a membrane preparation from Jurkat and/or MEC-1 cells were measured by Microscale Thermophoresis^xlv on a Monolith NT115-pico system (Nanotemper Technologies, Munich, Germany).
Binding curve measured by MST. […] A local temperature difference ΔT leads to a local change in molecule concentration (depletion or enrichment), quantified by the Soret coefficient ST: chot/ccold=exp(−STΔT). […]

CCCC[C@H](NC(=O)[C@@H](NC(=O)[C@@H](NC(=O)[C@H](Cc1ccc(O)cc1)NC(=O)[C@H](Cc1ccccc1)NC(=O)[C@H](CCCNC(=N)N)N(C)C(=O)[C@H](N)CCCCN)C(C)C)C(C)C)C(=O)N[C@@H](Cc1c[nH]c2ccccc12)C(=O)N[C@@H](CCCCN)C(=O)N[C@H](CCCCN)C(=O)O [PKT16, (D)Lys-(N-Me)Arg-Phe-Tyr-Val-Val-Nle-Trp-Lys-(D)Lys, reference compound] (HELM PEPTIDE1{[dK].[meR].F.Y.V.V.[Nle].W.K.[dK]}$$$$V2.0; N-terminus and C-terminus assumed)
concentration efficient to induce apoptosis [1]: 100 µM
efficacy to induce PCD at 100 μM ([1]; 100 μM, cancer cell lines): not observed; also recorded: not efficient
Kd (CD47): 1600 nM
